# Test results taken from the supplement of paper PMC8728848.
# The list shows a part of the results.
# B1: Tectonin 2 (Laccaria bicolor) (protein)
# chain: MPWKGISGSLSRISAGSVTNVWGVNAANNIYRYTGDDAKPWVQIPGALTDIGAAADGTVWGVNAAGNIYRYVWDSNHWTQIKGALKRISAGSRTNVWGVNAGGAIYRYTGDDANPWVQIPGVLSDIGAGADGTVWGVNAAGEIYRYTGDQGDPNHWVKIPGALSAISAGIKTNVWGVNSANNIYTSTGDDKNPWLGIGGSLVDIGAGTDGVVWGVNAGGGIYRWIRD
# Columns and labels:
# Test in all cases: glycan array binding signal (z-score within array); higher = stronger binding
# Conditions in all cases: glycan notation: IUPAC condensed, linker removed
# [1] = target: Neu5Ac(a2-3)Gal(b1-4)[Fuc(a1-3)]GlcNAc(b1-3)GalNAc
# Outline: (§1)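 The binding signal is a Z-score computed within each array and averaged over linkers. Arrays of the same protein sequence at different concentrations or buffers were also averaged together. Data originate from 3228 arrays in the Consortium for Functional Glycomics database, kept only where the protein sequence was available.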
# [2] = target: Neu5Ac(a2-3)Gal(b1-4)[Fuc(a1-3)]GlcNAc(b1-6)[Gal(b1-3)]GalNAc
# Outline: as §1
# [3] = target: Neu5Ac(a2-3)Gal(b1-4)[Fuc(a1-3)]GlcNAc(b1-6)[Neu5Ac(a2-3)Gal(b1-3)]GalNAc
# Outline: as §1
# [4] = target: Neu5Ac(a2-3)Gal(b1-4)[Fuc(a1-3)]GlcNAc6S
# Outline: as §1
# [5] = target: Neu5Ac(a2-3)Gal6S(b1-4)GlcNAc
# Outline: as §1
# [6] = target: Neu5Ac(a2-3)Gal6S(b1-4)[Fuc(a1-3)]GlcNAc
# Outline: as §1
# [7] = target: Neu5Ac(a2-3)GalNAc
# Outline: as §1
# [8] = target: Neu5Ac(a2-3)GalNAc(b1-4)GlcNAc
# Outline: as §1
# [9] = target: Neu5Ac(a2-3)[GalNAc(b1-4)]Gal(b1-4)Glc
# Outline: as §1
# [10] = target: Neu5Ac(a2-3)[GalNAc(b1-4)]Gal(b1-4)GlcNAc
# Outline: as §1
# [11] = target: Neu5Ac(a2-3)[GalNAc(b1-4)]Gal(b1-4)GlcNAc(b1-3)GalNAc
# Outline: as §1
# [12] = target: Neu5Ac(a2-3)[Neu5Ac(a2-6)]GalNAc
# Outline: as §1
# [13] = target: Neu5Ac(a2-6)Gal
# Outline: as §1
# [14] = target: Neu5Ac(a2-6)Gal(b1-3)GlcNAc(b1-3)[Gal(b1-4)GlcNAc(b1-6)]Gal(b1-4)Glc
# Outline: as §1
# [15] = target: Neu5Ac(a2-6)Gal(b1-4)Glc
# Outline: as §1
# [16] = target: Neu5Ac(a2-6)Gal(b1-4)GlcNAc
# Outline: as §1
# [17] = target: Neu5Ac(a2-6)Gal(b1-4)GlcNAc(b1-2)Man(a1-3)Man(b1-4)GlcNAc(b1-4)GlcNAc
# Outline: as §1
# [18] = target: Neu5Ac(a2-6)Gal(b1-4)GlcNAc(b1-2)Man(a1-3)[Gal(b1-4)GlcNAc(b1-2)Man(a1-6)]Man(b1-4)GlcNAc(b1-4)GlcNAc
# Outline: as §1
# [19] = target: Neu5Ac(a2-6)Gal(b1-4)GlcNAc(b1-2)Man(a1-3)[GlcNAc(b1-2)Man(a1-6)]Man(b1-4)GlcNAc(b1-4)GlcNAc
# Outline: as §1
# [20] = target: Neu5Ac(a2-6)Gal(b1-4)GlcNAc(b1-2)Man(a1-3)[GlcNAc(b1-2)Man(b1-4)GlcNAc(b1-2)Man(a1-6)]Man(b1-4)GlcNAc(b1-4)GlcNAc
# Outline: as §1
# [21] = target: Neu5Ac(a2-6)Gal(b1-4)GlcNAc(b1-2)Man(a1-3)[Man(a1-6)]Man(b1-4)GlcNAc(b1-4)GlcNAc
# Outline: as §1
# [22] = target: Neu5Ac(a2-6)Gal(b1-4)GlcNAc(b1-2)Man(a1-3)[Neu5Ac(a2-6)Gal(b1-4)GlcNAc(b1-2)Man(a1-6)]Man(b1-4)GlcNAc(b1-4)GlcNAc
# Outline: as §1
# [23] = target: Neu5Ac(a2-6)Gal(b1-4)GlcNAc(b1-2)Man(a1-6)Man(b1-4)GlcNAc(b1-4)GlcNAc
# Outline: as §1
# [24] = target: Neu5Ac(a2-6)Gal(b1-4)GlcNAc(b1-2)Man(a1-6)[Gal(b1-4)GlcNAc(b1-2)Man(a1-3)]Man(b1-4)GlcNAc(b1-4)GlcNAc
# Outline: as §1
# [25] = target: Neu5Ac(a2-6)Gal(b1-4)GlcNAc(b1-2)Man(a1-6)[GlcNAc(b1-2)Man(a1-3)]Man(b1-4)GlcNAc(b1-4)GlcNAc
# Outline: as §1
# [26] = target: Neu5Ac(a2-6)Gal(b1-4)GlcNAc(b1-2)Man(a1-6)[Man(a1-3)]Man(b1-4)GlcNAc(b1-4)GlcNAc
# Outline: as §1
# [27] = target: Neu5Ac(a2-6)Gal(b1-4)GlcNAc(b1-3)Gal(b1-3)GlcNAc
# Outline: as §1
# [28] = target: Neu5Ac(a2-6)Gal(b1-4)GlcNAc(b1-3)Gal(b1-4)GlcNAc
# Outline: as §1
# [29] = target: Neu5Ac(a2-6)Gal(b1-4)GlcNAc(b1-3)Gal(b1-4)GlcNAc(b1-3)Gal(b1-4)GlcNAc
# Outline: as §1
# [30] = target: Neu5Ac(a2-6)Gal(b1-4)GlcNAc(b1-3)Gal(b1-4)[Fuc(a1-3)]GlcNAc(b1-3)Gal(b1-4)[Fuc(a1-3)]GlcNAc
# Outline: as §1
# [31] = target: Neu5Ac(a2-6)Gal(b1-4)GlcNAc(b1-3)GalNAc
# Outline: as §1
# [32] = target: Neu5Ac(a2-6)Gal(b1-4)GlcNAc6S
# Outline: as §1
# [33] = target: Neu5Ac(a2-6)GalNAc
# Outline: as §1
# [34] = target: Neu5Ac(a2-6)GalNAc(b1-4)GlcNAc
# Outline: as §1
# [35] = target: Neu5Ac(a2-6)GlcNAc(b1-4)GlcNAc
# Outline: as §1
# [36] = target: Neu5Ac(a2-6)GlcNAc(b1-4)GlcNAc(b1-4)GlcNAc
# Outline: as §1
# [37] = target: Neu5Ac(a2-8)Neu5Ac
# Outline: as §1
# [38] = target: Neu5Ac(a2-8)Neu5Ac(a2-3)Gal(b1-4)Glc
# Outline: as §1
# [39] = target: Neu5Ac(a2-8)Neu5Ac(a2-3)[Gal(b1-3)GalNAc(b1-4)]Gal(b1-4)Glc
# Outline: as §1
# [40] = target: Neu5Ac(a2-8)Neu5Ac(a2-3)[GalNAc(b1-4)]Gal(b1-4)Glc
# Outline: as §1
# [41] = target: Neu5Ac(a2-8)Neu5Ac(a2-8)Neu5Ac
# Outline: as §1
# [42] = target: Neu5Ac(a2-8)Neu5Ac(a2-8)Neu5Ac(a2-3)Gal(b1-4)Glc
# Outline: as §1
# [43] = target: Neu5Ac(a2-8)Neu5Ac(a2-8)Neu5Ac(a2-3)[GalNAc(b1-4)]Gal(b1-4)Glc
# Outline: as §1
# [44] = target: Neu5Ac(a2-8)Neu5Ac(a2-8)Neu5Ac(a2-8)Neu5Ac(a2-3)[GalNAc(b1-4)]Gal(b1-4)Glc
# Outline: as §1
# [45] = target: Neu5Ac(b2-6)Gal(b1-4)GlcNAc
# Outline: as §1
# [46] = target: Neu5Ac(b2-6)GalNAc
# Outline: as §1
# [47] = target: Neu5Ac9Ac(a2-3)Gal(b1-3)GlcNAc
# Outline: as §1
# [48] = target: Neu5Ac9Ac(a2-3)Gal(b1-4)GlcNAc
# Outline: as §1
# [49] = target: Neu5Ac9Ac(a2-6)Gal(b1-4)GlcNAc
# Outline: as §1
# [50] = target: Neu5Gc(a2-3)Gal(b1-3)GlcNAc
# Outline: as §1
# [51] = target: Neu5Gc(a2-3)Gal(b1-3)[Fuc(a1-4)]GlcNAc
# Outline: as §1
# [52] = target: Neu5Gc(a2-3)Gal(b1-4)Glc
# Outline: as §1
# [53] = target: Neu5Gc(a2-3)Gal(b1-4)GlcNAc
# Outline: as §1
# [54] = target: Neu5Gc(a2-3)Gal(b1-4)[Fuc(a1-3)]GlcNAc
# Outline: as §1
# [55] = target: Neu5Gc(a2-6)Gal(b1-4)GlcNAc
# Outline: as §1
# [56] = target: Neu5Gc(a2-6)GalNAc
# Outline: as §1
# [57] = target: Neu5Gc(b2-6)Gal(b1-4)GlcNAc
# Outline: as §1
binder,measurement,setting,value
B1,glycan array binding signal (z-score),[1],2.62
same,glycan array binding signal (z-score),[2],0.19
same,glycan array binding signal (z-score),[3],-0.084
same,glycan array binding signal (z-score),[4],0.515
same,glycan array binding signal (z-score),[5],1.38
same,glycan array binding signal (z-score),[6],1.1
same,glycan array binding signal (z-score),[7],0.375
same,glycan array binding signal (z-score),[8],-0.183
same,glycan array binding signal (z-score),[9],0.067
same,glycan array binding signal (z-score),[10],0.561
same,glycan array binding signal (z-score),[11],-0.012
same,glycan array binding signal (z-score),[12],-0.053
same,glycan array binding signal (z-score),[13],-0.183
same,glycan array binding signal (z-score),[14],-0.09
same,glycan array binding signal (z-score),[15],-0.183
same,glycan array binding signal (z-score),[16],-0.063
same,glycan array binding signal (z-score),[17],0.814
same,glycan array binding signal (z-score),[18],-0.182
same,glycan array binding signal (z-score),[19],0.704
same,glycan array binding signal (z-score),[20],0.63
same,glycan array binding signal (z-score),[21],0.386
same,glycan array binding signal (z-score),[22],0.615
same,glycan array binding signal (z-score),[23],-0.091
same,glycan array binding signal (z-score),[24],-0.38
same,glycan array binding signal (z-score),[25],1.2
same,glycan array binding signal (z-score),[26],-0.281
same,glycan array binding signal (z-score),[27],0.08
same,glycan array binding signal (z-score),[28],-0.014
same,glycan array binding signal (z-score),[29],-0.075
same,glycan array binding signal (z-score),[30],0.277
same,glycan array binding signal (z-score),[31],1.14
same,glycan array binding signal (z-score),[32],0.765
same,glycan array binding signal (z-score),[33],-0.325
same,glycan array binding signal (z-score),[34],0.405
same,glycan array binding signal (z-score),[35],-0.219
same,glycan array binding signal (z-score),[36],-0.089
same,glycan array binding signal (z-score),[37],-0.07
same,glycan array binding signal (z-score),[38],0.956
same,glycan array binding signal (z-score),[39],-0.19
same,glycan array binding signal (z-score),[40],-0.311
same,glycan array binding signal (z-score),[41],0.261
same,glycan array binding signal (z-score),[42],0.442
same,glycan array binding signal (z-score),[43],-0.445
same,glycan array binding signal (z-score),[44],2.33
same,glycan array binding signal (z-score),[45],-0.242
same,glycan array binding signal (z-score),[46],0.283
same,glycan array binding signal (z-score),[47],0.2
same,glycan array binding signal (z-score),[48],-0.25
same,glycan array binding signal (z-score),[49],0.77
same,glycan array binding signal (z-score),[50],-0.514
same,glycan array binding signal (z-score),[51],0.034
same,glycan array binding signal (z-score),[52],-0.196
same,glycan array binding signal (z-score),[53],-0.145
same,glycan array binding signal (z-score),[54],0.328
same,glycan array binding signal (z-score),[55],0.165
same,glycan array binding signal (z-score),[56],0.497
same,glycan array binding signal (z-score),[57],-0.222
